From PubChem BioAssay (NCATS)
Some of the results follow. Shown are side measurements of this screen, not its main read-out; they come without a call. Compounds called inactive in the main read-out are mostly missing here. Potencies come from curve fits of mixed quality, noted in brackets.

Assay: Cell-based coincidence reporter assay to measure PMP22 gene transcription in S16 Pmp22-F2sN cells - Confirmatory screen (AID 1508646)
Conditions: S16 Schwann cells Pmp22-F2sN, dual luciferase, 24 h
Outline: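 S16 Schwann cells carrying a bioluminescent reporter in the Pmp22 3' UTR (Pmp22-F2sN) were treated with compounds for 24 h at 37C, then lysed; FLuc and then NLuc luminescence were read sequentially with a dual-luciferase kit on a CCD imager.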

[1] = measured here: FLuc reporter channel
[2] = measured here: NLuc reporter channel
Tags give direction and shape of the fitted curve.

Cc1ccc(C)c(Nc2nn3c(=O)c4ccc(C(=O)NCc5cccs5)cc4nc3s2)c1
AC50 [1]: 19.3 µM [falling, partial curve] | AC50 [2]: 21.7 µM [falling, partial curve]

Cc1ccc(-c2c(C)n3c4c(=O)n(C)c(=O)n(C)c4nc3n2-c2cccc(O)c2)cc1
AC50 [1]: 5.44 µM [falling, partial curve, poor fit] | AC50 [2]: 30.6 µM [falling, partial curve, poor fit]

CCOC(=O)c1ccc(N2C(=O)c3n[nH]c(-c4ccco4)c3C2c2ccc(O)c(OC)c2)cc1 (configuration not stated)
AC50 [1]: 19.3 µM [falling, partial curve] | AC50 [2]: 19.3 µM [falling, partial curve]

COc1cccc(-c2cc(C(=O)Nc3cc(OC)c(OC)c(OC)c3)on2)c1
AC50 [1]: 19.3 µM [falling, partial curve] | AC50 [2]: 17.2 µM [falling, partial curve]

COc1ccc(NC(=O)c2cc3c(s2)-c2c(C)cccc2OC3)cc1Cl
AC50 [1]: 21.7 µM [falling, partial curve] | AC50 [2]: 24.3 µM [falling, partial curve]

CCCCCS(=O)(=O)c1oc(-c2cccs2)nc1S(=O)(=O)c1ccc(C)cc1
AC50 [1]: 17.2 µM [falling, partial curve] | AC50 [2]: 17.2 µM [falling, partial curve]

CCOc1ccc(NC(=O)Cn2c(=O)n(Cc3ccc4c(c3)OCO4)c(=O)c3ccc(C(=O)NC4CCCCC4)cc32)cc1
AC50 [1]: 9.68 µM [falling, full curve] | AC50 [2]: 15.3 µM [falling, partial curve]

Cc1ccc(-n2c(SCc3nc(-c4ccc(Cl)cc4)no3)nnc2-c2ccncc2)cc1
AC50 [1]: 13.7 µM [falling, full curve] | AC50 [2]: 12.2 µM [falling, single point]

CC1=Nc2cc(C(=O)NCCc3ccccc3)ccc2Sc2c(C)ccc(C)c21
AC50 [1]: 8.62 µM [falling, full curve, poor fit] | AC50 [2]: 6.85 µM [falling, partial curve]

Clc1cccc(N2CCN(c3ncnc4c3nc3n4CCCCC3)CC2)c1
AC50 [1]: 19.3 µM [falling, partial curve] | AC50 [2]: 27.3 µM [falling, partial curve]

Cn1c(=O)c2cc(C(=O)NCCCN3CCN(c4ccc(F)cc4)CC3)sc2c2ccccc21
AC50 [1]: 24.3 µM [falling, partial curve] | AC50 [2]: 27.3 µM [falling, partial curve]

Cc1nnc(SCC(=O)NCc2ccccc2Cl)c2nn(-c3ccccc3)c(C)c12
AC50 [1]: 13.7 µM [falling, partial curve, poor fit] | AC50 [2]: 17.2 µM [falling, partial curve]

COc1ccc(-n2nc3c(N4CCCC(C(=O)NCc5ccccc5C)C4)nnc(C)c3c2C)cc1 (configuration not stated)
AC50 [1]: 17.2 µM [falling, partial curve] | AC50 [2]: 21.7 µM [falling, partial curve]

O=C(NCCCN1CCN(c2ccccc2)CC1)c1ccc2nc(CCc3ccccc3)oc2c1
AC50 [1]: 4.32 µM [falling, full curve, poor fit] | AC50 [2]: 34.3 µM [falling, partial curve]

CCOCCCNC(=O)c1c(NC(=O)c2nc(SC)ncc2Cl)sc2c1CCCC2
AC50 [1]: 43.2 µM [falling, single point] | AC50 [2]: 34.3 µM [falling, partial curve]

Cc1c(C(=O)OC2CCCCC2)[nH]c2c1C(=O)CC(c1ccccc1)C2 (configuration not stated)
AC50 [1]: 24.3 µM [falling, partial curve, poor fit] | AC50 [2]: 24.3 µM [falling, partial curve, poor fit]

COCCCn1c(=N)c(C(=O)NC2CCCC2)cc2c(=O)n3cccc(C)c3nc21
AC50 [1]: 17.2 µM [falling, partial curve] | AC50 [2]: 21.7 µM [falling, partial curve]

CC(C)COc1ccccc1C1CC(=O)Nc2cc3c(cc21)OCO3 (configuration not stated)
AC50 [1]: 21.7 µM [falling, partial curve] | AC50 [2]: 24.3 µM [falling, partial curve, poor fit]

O=c1c2c3c(sc2n(Cc2ccccc2F)c(=O)n1-c1ccc(Cl)cc1)CCCC3
AC50 [1]: 7.69 µM [falling, full curve, poor fit] | AC50 [2]: 6.11 µM [falling, full curve]

CN(C)CCNC(=O)c1ccc(-n2c(-c3ccccc3)cc3c2CCCC3)cc1
AC50 [1]: 19.3 µM [falling, partial curve] | AC50 [2]: 21.7 µM [falling, partial curve]

O=C(NCCCN1CCN(c2cccc(Cl)c2)CC1)c1nnc(Cc2ccc(F)cc2Cl)o1
AC50 [1]: 24.3 µM [falling, partial curve] | AC50 [2]: 27.3 µM [falling, partial curve]

COc1cc(C(=O)CC2(O)C(=O)N(Cc3ccccc3Cl)c3ccccc32)cc(OC)c1OC (configuration not stated)
AC50 [1]: 30.6 µM [falling, single point] | AC50 [2]: 34.3 µM [falling, partial curve]

COc1ccccc1CNC(=O)CSc1nnc(C)c2c(C)n(-c3ccccc3)nc12
AC50 [1]: 10.9 µM [falling, partial curve] | AC50 [2]: 17.2 µM [falling, partial curve, poor fit]

COc1ccc(CNC(=O)C2CCCN(c3nnc(C)c4c(C)n(-c5ccc(C)cc5)nc34)C2)cc1 (configuration not stated)
AC50 [1]: 19.3 µM [falling, partial curve, poor fit] | AC50 [2]: 30.6 µM [falling, single point]

CC(NC(=O)c1cccc(Nc2nc3ccccc3n3nnnc23)c1)c1ccccc1 (configuration not stated)
AC50 [1]: 13.7 µM [falling, partial curve] | AC50 [2]: 15.3 µM [falling, partial curve, poor fit]

Cc1cccc(N2CCN(C(=O)c3ccc(CS(=O)c4cccc(Cl)c4)o3)CC2)c1C (configuration not stated)
AC50 [1]: 4.32 µM [falling, full curve, poor fit] | AC50 [2]: 3.43 µM [falling, full curve]

CCCN(C(=O)Cn1nc(Cc2ccncc2)c2ccccc2c1=O)c1ccccc1C
AC50 [1]: 17.2 µM [falling, partial curve, poor fit] | AC50 [2]: 15.3 µM [falling, partial curve, poor fit]

COc1ccc(Cn2c(SCC(N)=O)nc3c(sc4ccccc43)c2=O)cc1
AC50 [1]: 43.2 µM [falling, single point] | AC50 [2]: 38.5 µM [falling, single point]

Cn1c(=O)oc2cc(S(=O)(=O)N3CCCC(C(=O)N4CCN(c5ccc(Cl)cc5)CC4)C3)ccc21 (configuration not stated)
AC50 [1]: 10.9 µM [falling, full curve] | AC50 [2]: 19.3 µM [falling, partial curve]

CCOc1ccc(-c2c(C)nn3c(C)c(C(=O)NCC(C)c4ccccc4)cnc23)cc1OCC (configuration not stated)
AC50 [1]: 15.3 µM [falling, partial curve, poor fit] | AC50 [2]: 17.2 µM [falling, partial curve, poor fit]

CCC(Sc1nc2ccccc2c2nc(-c3ccccc3)nn12)C(=O)Nc1cccc(OC)c1 (configuration not stated)
AC50 [1]: 13.7 µM [falling, partial curve] | AC50 [2]: 15.3 µM [falling, partial curve]

COc1ccc(CCNc2ncnc3onc(C)c23)c(OC)c1
AC50 [1]: 3.06 µM [falling, full curve] | AC50 [2]: 4.85 µM [falling, full curve]

Cc1cccc(Nc2cc(C)nc(-n3nc(C)cc3C)n2)c1
AC50 [1]: 10.9 µM [falling, full curve, poor fit] | AC50 [2]: 15.3 µM [falling, partial curve, poor fit]

Clc1ccc(-c2noc3ncnc(NC4CCCCC4)c23)cc1
AC50 [1]: 13.7 µM [falling, full curve, poor fit] | AC50 [2]: 12.2 µM [falling, full curve, poor fit]

CCOc1ccc(NC(=O)c2c(NC(=O)Cc3ccccc3)sc3c2CCC(C)C3)cc1 (configuration not stated)
AC50 [1]: 13.7 µM [falling, partial curve] | AC50 [2]: 19.3 µM [falling, partial curve]

Cc1ccc(CNC(=O)c2ccc(Cn3c(=O)c4ccccc4n(CC(=O)Nc4ccc(C)cc4C)c3=O)cc2)cc1
AC50 [1]: 15.3 µM [falling, full curve] | AC50 [2]: 21.7 µM [falling, partial curve]

CCc1ccccc1Nc1nn2c(=O)c3ccc(C(=O)Nc4cc(C)cc(C)c4)cc3nc2s1
AC50 [1]: 12.2 µM [falling, partial curve] | AC50 [2]: 10.9 µM [falling, full curve]

COC(=O)c1ccccc1NC(=O)c1nc(S(=O)(=O)Cc2cccc(C)c2)ncc1Cl
AC50 [1]: 6.85 µM [falling, full curve] | AC50 [2]: 7.69 µM [falling, full curve]

CCN(CC)c1ccc(NC(=O)C2COc3ccc(OC)cc3C2)c(C)c1 (configuration not stated)
AC50 [1]: 13.7 µM [falling, partial curve] | AC50 [2]: 15.3 µM [falling, partial curve]

Cc1c2cnn(CC(=O)NCc3ccccc3)c(=O)c2c(C)n1Cc1cccc(Cl)c1
AC50 [1]: 17.2 µM [falling, partial curve] | AC50 [2]: 24.3 µM [falling, partial curve, poor fit]

O=C(Cn1cc(C(=O)C2CCCCC2)c2ccccc21)Nc1ccccc1Cl
AC50 [1]: 24.3 µM [falling, partial curve, poor fit] | AC50 [2]: 19.3 µM [falling, partial curve, poor fit]
